Measurements as given in patent US12060433B2, “CD73 inhibitor and A2A/A2B adenosine receptor inhibitor combination therapy” (Incyte Corporation, priority 2020, dated 2024).

Key:
[1] = target: T1, mouse CD73 (SEQ ID NO: 71) (Mus musculus, UniProt Q61503); assay: SPR (Biacore 8K) binding affinity and kinetics to mouse CD73; conditions: murine CD73, open conformation (merged ka/kd/KD cell where no binding)
T1 construct: purchased BPS Bioscience
T1 sequence (Q61503 29-551): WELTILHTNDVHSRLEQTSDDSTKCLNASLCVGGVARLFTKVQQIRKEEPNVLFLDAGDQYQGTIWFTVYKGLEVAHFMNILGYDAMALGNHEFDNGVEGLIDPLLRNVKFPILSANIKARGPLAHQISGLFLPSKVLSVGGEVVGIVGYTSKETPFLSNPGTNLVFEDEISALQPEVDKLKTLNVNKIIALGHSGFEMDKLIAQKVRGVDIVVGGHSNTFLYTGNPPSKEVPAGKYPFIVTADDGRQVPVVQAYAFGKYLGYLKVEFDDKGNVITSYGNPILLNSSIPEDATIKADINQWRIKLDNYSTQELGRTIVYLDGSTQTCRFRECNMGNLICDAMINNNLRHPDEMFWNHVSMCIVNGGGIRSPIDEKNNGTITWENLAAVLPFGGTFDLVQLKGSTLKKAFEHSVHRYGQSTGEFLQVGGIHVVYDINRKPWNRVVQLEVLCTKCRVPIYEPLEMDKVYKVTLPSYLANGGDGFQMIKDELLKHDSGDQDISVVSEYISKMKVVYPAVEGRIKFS
Description: The SPR running buffer (10 mM HEPES, 150 mM NaCl, 3 mM EDTA and 0.05% v/v Surfactant P20, pH 7.4) was prepared from 10×HBS-EP Buffer (GE Healthcare). Anti-human Fc antibodies (GE Healthcare) were immobilized via amine coupling on all sixteen flow cells of an S series sensor chip CM5 (GE Healthcare). The immobilization levels were ˜9000 RU for all flow cells. The desired capturing level of anti-CD73 antibody was achieved by flowing appropriate concentration of anti-CD73 antibody through the active flow cell of each channel. The non-cleavable ADP analogue APCP (adenosine-5′-(α,β-methylene) diphosphate) with the presence of Zn^2+ can be used to shift the CD73 conformational equilibrium from open towards closed. Therefore, recombinant CD73 was incubated with SPR running buffer in the presence of 100 μM APCP and 10 μM ZnCl2 (closed SPR running buffer) to study the binding of anti-CD73 antibody to the CD73 in the closed conformation. To achieve this, the ABA injection feature in Biacore 8K was used. For open conformation, the ABA injection sequence started with 60 seconds injection of running buffer. Then, CD73 3-fold serial dilution concentration series prepared from CD73 stock (BPS Bioscience) and running buffer were injected for 180 seconds immediately followed by running buffer for 240 seconds. […]

[2] = target: T2, cell surface CD73 on MDA-MB-231 cells (Homo sapiens, UniProt P21589); assay: Binding to cell surface CD73 by flow cytometry (GMFI), MDA-MB-231 cells; type: cell-based; conditions: high levels of surface CD73
T2 construct: endogenous in cells; host or cells: MDA-MB-231
T2 sequence (P21589 27-549): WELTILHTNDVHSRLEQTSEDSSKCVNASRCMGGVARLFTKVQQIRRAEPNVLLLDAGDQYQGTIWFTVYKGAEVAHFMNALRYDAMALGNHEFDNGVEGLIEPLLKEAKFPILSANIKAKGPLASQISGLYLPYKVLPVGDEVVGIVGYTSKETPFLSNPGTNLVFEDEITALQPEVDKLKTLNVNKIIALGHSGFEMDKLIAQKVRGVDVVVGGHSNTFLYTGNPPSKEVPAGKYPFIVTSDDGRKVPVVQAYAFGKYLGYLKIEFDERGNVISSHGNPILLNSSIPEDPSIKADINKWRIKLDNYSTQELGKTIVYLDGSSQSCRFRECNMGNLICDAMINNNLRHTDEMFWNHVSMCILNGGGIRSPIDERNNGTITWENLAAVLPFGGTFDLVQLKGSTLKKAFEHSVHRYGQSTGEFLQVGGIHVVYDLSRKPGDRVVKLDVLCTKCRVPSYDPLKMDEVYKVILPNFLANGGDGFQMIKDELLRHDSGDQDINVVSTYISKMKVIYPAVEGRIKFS
Description: (§1) To test the binding of humanized and non-humanized CL25 clones to cell surface CD73, MDA-MB-231 or A375 cells were washed and added to 96-well plates at 5×10^4 cells/well. The cells were stained with the indicated concentration of antibodies for 30 minutes on ice (FIG. 2A and FIG. 2B). Next, the cells were washed and stained using goat anti-mouse secondary conjugated to phycoerythrin (PE) for 30 minutes on ice. The cells were then washed and analyzed by flow cytometry. Geometric mean fluorescence intensity (GMFI) of CD73 staining was graphed (FIG. 2A and FIG. 2B).
Cells were stained with the indicated concentration of antibodies for 1 hour on ice. Cells were then washed and stained goat anti-mouse secondary conjugated to PE for 30 minute on ice. Cells were then washed and analyzed by flow cytometry. The GMFI of CD73 staining is graphed (FIG. 13).

[3] = target: T3, cell surface CD73 on A375 cells (Homo sapiens, UniProt P21589); assay: Binding to cell surface CD73 by flow cytometry (GMFI), A375 cells; type: cell-based; conditions: moderate levels of surface CD73
T3 construct: endogenous in cells; host or cells: A375
T3 sequence (P21589 27-549): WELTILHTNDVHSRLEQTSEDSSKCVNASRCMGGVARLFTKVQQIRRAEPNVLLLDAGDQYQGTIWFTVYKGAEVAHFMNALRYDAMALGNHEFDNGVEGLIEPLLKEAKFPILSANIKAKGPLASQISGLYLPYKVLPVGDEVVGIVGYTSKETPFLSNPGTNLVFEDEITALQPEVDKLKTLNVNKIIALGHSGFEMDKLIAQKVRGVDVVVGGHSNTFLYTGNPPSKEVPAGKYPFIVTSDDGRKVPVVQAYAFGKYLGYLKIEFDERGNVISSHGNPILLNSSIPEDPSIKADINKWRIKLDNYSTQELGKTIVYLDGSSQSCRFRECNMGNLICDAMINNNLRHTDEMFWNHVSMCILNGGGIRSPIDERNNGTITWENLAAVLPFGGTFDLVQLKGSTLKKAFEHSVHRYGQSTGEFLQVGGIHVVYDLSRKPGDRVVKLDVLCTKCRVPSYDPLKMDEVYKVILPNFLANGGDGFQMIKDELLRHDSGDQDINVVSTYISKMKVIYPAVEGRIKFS
Description: as §1

[4] = target: T4, cellular CD73 on A375 cells (Homo sapiens, UniProt P21589); assay: Cellular CD73 inhibition (AMP-Glo), A375 cells; type: cell-based; conditions: 100 μM AMP, 3 hours
T4 construct: endogenous in cells; host or cells: A375
T4 sequence (P21589 27-549): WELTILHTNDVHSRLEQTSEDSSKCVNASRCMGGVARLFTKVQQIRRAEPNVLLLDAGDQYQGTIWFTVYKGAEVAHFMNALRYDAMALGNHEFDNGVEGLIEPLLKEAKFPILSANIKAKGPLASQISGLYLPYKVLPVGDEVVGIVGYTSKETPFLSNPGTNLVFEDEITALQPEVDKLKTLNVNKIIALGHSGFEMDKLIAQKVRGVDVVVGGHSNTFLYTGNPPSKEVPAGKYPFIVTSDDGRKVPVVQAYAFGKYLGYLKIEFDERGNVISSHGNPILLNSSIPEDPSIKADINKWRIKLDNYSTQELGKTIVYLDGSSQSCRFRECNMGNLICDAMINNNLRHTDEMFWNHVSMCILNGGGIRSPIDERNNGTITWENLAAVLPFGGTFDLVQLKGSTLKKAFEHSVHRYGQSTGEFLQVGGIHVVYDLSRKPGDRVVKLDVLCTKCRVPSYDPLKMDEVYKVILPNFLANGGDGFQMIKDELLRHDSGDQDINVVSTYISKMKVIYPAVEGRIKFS
Description: To measure ability of anti-CD73 antibody to inhibit CD73 activity on cells, A375 and MDA-MB-231 cells were washed with serum free RPMI media (ThermoFisher) and plated in 96-well plates at a concentration of 8×10^4 cells/well for A375 or 1×10^4 cells/well for MDA-MB-231. The cells were incubated with the indicated concentration of antibodies or APCP at 37° C. 5% C02 for 30 minutes (FIG. 3A, FIG. 3B, and FIG. 3C). Next, adenosine monophosphate (AMP) was added to a final concentration of 100 μM and cells were incubated an additional 3 hours at 37° C. 5% CO2. Plates were centrifuged for 1-2 minutes at 300 g and 25 μL of supernatant was transferred into a new 96-well plates. AMP-Glo Assay was used according to the manufacturer's instructions (Promega). Relative luminescence unit (RLU) is directly correlated with the AMP concentration in this assay. Results are depicted in FIG. 3A, FIG. 3B, and FIG. 3C. The ability of 3-[…] to inhibit CD73 activity on cells was evaluated as described in Example 3, above. Results are depicted in FIG. 8A and FIG. 8B.

[5] = target: T5, cellular CD73 on MDA-MB-231 cells (Homo sapiens, UniProt P21589); assay: Cellular CD73 inhibition (AMP-Glo), MDA-MB-231 cells; type: cell-based; conditions: 100 μM AMP, 3 hours
T5 construct: endogenous in cells; host or cells: MDA-MB-231
T5 sequence (P21589 27-549): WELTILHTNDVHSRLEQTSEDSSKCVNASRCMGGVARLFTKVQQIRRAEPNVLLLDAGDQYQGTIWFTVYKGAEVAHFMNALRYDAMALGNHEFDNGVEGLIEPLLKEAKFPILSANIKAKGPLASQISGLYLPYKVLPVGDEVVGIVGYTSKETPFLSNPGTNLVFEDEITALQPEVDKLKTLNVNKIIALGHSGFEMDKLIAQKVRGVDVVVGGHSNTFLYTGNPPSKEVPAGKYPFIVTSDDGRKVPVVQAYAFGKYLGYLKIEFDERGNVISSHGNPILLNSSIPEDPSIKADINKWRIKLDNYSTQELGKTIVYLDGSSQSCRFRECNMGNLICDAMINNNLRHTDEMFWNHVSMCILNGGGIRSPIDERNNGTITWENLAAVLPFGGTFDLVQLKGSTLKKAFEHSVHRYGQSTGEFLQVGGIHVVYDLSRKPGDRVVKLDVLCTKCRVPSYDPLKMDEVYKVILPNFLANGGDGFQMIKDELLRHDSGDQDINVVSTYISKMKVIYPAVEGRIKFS
Description: To measure ability of anti-CD73 antibody to inhibit CD73 activity on cells, A375 and MDA-MB-231 cells were washed with serum free RPMI media (ThermoFisher) and plated in 96-well plates at a concentration of 8×10^4 cells/well for A375 or 1×10^4 cells/well for MDA-MB-231. The cells were incubated with the indicated concentration of antibodies or APCP at 37° C. 5% C02 for 30 minutes (FIG. 3A, FIG. 3B, and FIG. 3C). Next, adenosine monophosphate (AMP) was added to a final concentration of 100 μM and cells were incubated an additional 3 hours at 37° C. 5% CO2. Plates were centrifuged for 1-2 minutes at 300 g and 25 μL of supernatant was transferred into a new 96-well plates. AMP-Glo Assay was used according to the manufacturer's instructions (Promega). Relative luminescence unit (RLU) is directly correlated with the AMP concentration in this assay. Results are depicted in FIG. 3A, FIG. 3B, and FIG. 3C. […] Results are depicted in FIG. 8A and FIG. 8B. […] Cells were incubated with the indicated concentration of antibodies or APCP at 37° C. 5% CO2 for 30 minutes. Next, AMP was added to a final concentration of 100 μM and cells were incubated an additional 3 hours at 37° C. 5% CO2. Plates were centrifuged for 1-2 minutes at 300 g and 25 μL of supernatant was transferred into a new 96-well plates. AMP-Glo Assay was used according to the manufacturer's instructions. […]

[6] = target: T6, recombinant human CD73 (rhuCD73) (SEQ ID NO:70) (Homo sapiens, UniProt P21589); assay: Soluble CD73 inhibition (AMP-Glo); type: biochemical; conditions: 0.008 μg/mL rhuCD73, 100 μM AMP
T6 sequence (P21589 27-549): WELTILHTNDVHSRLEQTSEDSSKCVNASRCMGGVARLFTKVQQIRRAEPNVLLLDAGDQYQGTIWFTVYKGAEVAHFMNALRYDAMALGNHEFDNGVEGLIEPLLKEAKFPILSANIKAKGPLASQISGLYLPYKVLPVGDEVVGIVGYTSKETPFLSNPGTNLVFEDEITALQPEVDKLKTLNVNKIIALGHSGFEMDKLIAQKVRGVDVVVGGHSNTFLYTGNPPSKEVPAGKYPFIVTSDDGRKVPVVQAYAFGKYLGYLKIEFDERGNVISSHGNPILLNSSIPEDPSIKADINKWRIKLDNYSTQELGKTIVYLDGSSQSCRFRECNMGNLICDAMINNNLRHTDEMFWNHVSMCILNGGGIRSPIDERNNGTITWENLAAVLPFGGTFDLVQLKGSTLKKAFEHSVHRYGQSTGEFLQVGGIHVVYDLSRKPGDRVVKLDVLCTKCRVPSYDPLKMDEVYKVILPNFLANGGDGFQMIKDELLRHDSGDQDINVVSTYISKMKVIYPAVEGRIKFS
Description: To measure the ability of the CD73 antibodies to inhibit CD73 activity of recombinant protein, recombinant human CD73 (rhuCD73) (SEQ ID NO:70) was added to 96-well plates at a final concentration of 0.008 μg/mL with the indicated concentration of antibodies (FIG. 4) or adenosine 5′-[α,β-methylene]diphosphate (APCP) and incubated at 37° C. 5% CO2 for 30 minutes. After the 30 minute incubation, AMP was added to a final concentration of 100 μM and the reactions were incubated an additional 3 hours at 37° C. 5% CO2. 25 μL of supernatant was transferred into new 96-well plates. The AMP-Glo Assay was used according to the manufacturer's instructions. RLU is a directly correlated with the AMP concentration in this assay. Results are depicted in FIG. 4.
Results are depicted in FIG. 9.

B1: HzCL25: humanized version of CL25, IgG1/kappa N297A, VH SEQ ID NO:22, VL SEQ ID NO:23; heavy chain SEQ ID NO:24, light chain SEQ ID NO:25 (antibody)
heavy: EVQLVQSGAEVKKPGESLKISCKGSGYTFTSYGLSWVRQMPGKGLEWMGEIYPGSGNTYYNEKFKGQVTISADKSISTAYLQWSSLKASDTAMYYCARYDYLGSSYGFDYWGAGTTVTVSSASTKGPSVFPLAPSSKSTSGGTAALGCLVKDYFPEPVTVSWNSGALTSGVHTFPAVLQSSGLYSLSSVVTVPSSSLGTQTYICNVNHKPSNTKVDKRV[human IgG1 Fc with changes cut from this listing]
light: DIVMTQSPDSLAVSLGERATINCKASQDVSTAVAWYQQKPGQPPKLLIYSASYRYSGVPDRFSGSGSGTDFTLTISSLQAEDVAVYYCQQHYNTPYTFGGGTKLEIKRTVAAPSVFIFPPSDEQLKSGTASVVCLLNNFYPREAKVQWKVDNALQSGNSQESVTEQDSKDSTYSLSSTLTLSKADYEKHKVYACEVTHQGLSSPVTKSFNRGEC
[1]
  KD: No binding
[2]
  cell binding (GMFI): high potency binding
[3]
  cell binding (GMFI): high potency binding
[4]
  cellular CD73 inhibition: good potency
[5]
  cellular CD73 inhibition: good potency
[6]
  hook-effect in inhibition of recombinant CD73: no hook-effect
  inhibition of recombinant CD73: high potency
